Laboratory results as given in the supplement of paper PMC11417369.
The list shows a part of the results.

Test system: PfAP2-HC AP2 domain (GST-tagged)
Experiment: gcPBM binding intensity (ln(normalized median fluorescence intensity)); higher = stronger DNA binding
Summary of the method: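 Binding of GST-tagged P. falciparum DNA-binding domains, expressed in E. coli and used at about 25 μg on average, was carried out for 1 h in 1× PBS containing 1% milk, 0.2 mg/ml BSA, 0.5% salmon testes DNA and 0.03% Triton X-100. The target was an Agilent 4 × 180k array of primer-extended double-stranded 36-bp intergenic genomic probes plus negative controls, read with Alexa488 anti-GST antibody at 488 nm. Binding intensity is the highest Masliner-normalised natural-log median intensity across replicate spots of either probe orientation.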

Row | Sequence | gcPBM binding intensity (ln)
1 | GCACAATTTACACTTAAACACACAAAAAAAAATTAT [CACACA_site8642] | 9.81
2 | AGCACAGACGGACACACACACACACCCACAGACACA [CACACA_site4358] | 11.4
3 | AAATTTATTTATTATAGTACACTTAATACTACCCAA [XGTACX_site41] | 9.44
4 | CATCTTAGTTTGAGTTGTACAATATTTATAAAAATA [XGTACX_site693] | 9.45
5 | ACAAGTTTAACATTTCGTACTTATTGTGTTTTTTTT [XGTACX_site5487] | 10.1
6 | CTTTTAATATTAAGATGTACTTAGAATTTTTTTTTT [XGTACX_site8338] | 9.37
7 | CATATATATTTATGTACACACATTAATAAAAAAAAA [CACACA_site5741] | 9.85
8 | TTTTTTGTTATTGGCGTGCACATATCCATTTATAGT | 9.8
9 | ATATATATAAATAATTGTACTTAAAAAAAAAAAAGG [XGTACX_site6847] | 9.69
10 | AACAGCATATCACATTTCTTCAAAAAAAAATAAAAT [CACACA_negctrl_site733] | 9.47
11 | TGTAGAGCGCAAAGTAGTACTACAAATTATGGAGGG [XGTACX_site3022] | 9.81
12 | TTTGTTAAAAATATATTATGAATAAAAATATATTTT [CACACA_negctrl_site170] | 9.33
13 | TTAAAACATAAAAAAAGTACATACAAATATATATAA [XGTACX_site789] | 9.76
14 | TATGTCAATCAAGCAAGTACATATATATATAAATAT [XGTACX_site7554] | 9.58
15 | TACAAAATAACTAGCACACATATGTATAAACATATA [CACACA_site5948] | 9.85
16 | AATTATATTACGAAATGTACATATAATAATGTATAT [XGTACX_site4410] | 9.71
17 | GCCATTGTACCATCCACACACATATATATATGTATA [CACACA_site2704] | 10.1
18 | TTCAAAACTTAAAATCGTACAAGACAATTATTATAT [XGTACX_site6626] | 9.43
19 | ATATTAAATTCAATTTAATGTTTTGTGAATTTTAGA [CACACA_negctrl_site1421] | 9.39
20 | TTAAATGGAAAAATATGTACATATATATATATATTT [XGTACX_site2286] | 9.59
21 | TGAACTCATAGATTTAGTACATATATAAAAAAATTC [XGTACX_site1692] | 9.38
22 | TAAACACCCATATAAACACACATACATACATACATA [CACACA_site5383] | 10.4

Row | Sequence | gcPBM binding intensity (ln)
23 | GATTAATTTAAAAAATGTACATTTTATTGTATAACC [XGTACX_site5539] | 9.7
24 | CCAAGAAACCAAAAAAGTACATACATGGTTATAATT [XGTACX_site4249] | 9.8
25 | ACAATATGTATATATATATATATGCAAATGTATAAA [CACACA_negctrl_site53] | 9.78
26 | GCAGCAGCATTTTCAGTGCATTATTATATTGTTCAT [GTGCAC_site9926] | 9.75
27 | GTAATAAAATGACATACATGCATTACAATTATGTAA [TGCATGCA_site220] | 9.72
28 | TATTATAATACTTATTGTACTTTTAGGTTAATTTAT [XGTACX_site995] | 9.65
29 | GTGTACTTTTAAATAGTGCATTTTACAATAATAAAA [GTGCAC_site9653] | 9.32
30 | GTTGCACAATGTTACACACACAATATATATCGTTAA [CACACA_site1275] | 9.95
31 | TAGTATTAAATATATACACACATATATACATATAGA [CACACA_site2154] | 9.86
32 | TTAATTTTTTTTTCTTGTACACACTATTTTATAATT [XGTACX_site8783] | 9.96
33 | AATTGTACGTAGGGGTATAAAAGCTTAAAAATGGGG [CACACA_negctrl_site1392] | 9.72
34 | AAAGCAAAAGGAAAATAACCAACCCTAATTAACACA [CACACA_negctrl_site530] | 10
35 | CCCTTTTTTTTTTAATGTACATATAATTATATATTT [XGTACX_site8568] | 9.88
36 | GGAAACCTTTTTTTTACACACAATATATTAAGACTT [CACACA_site4899] | 9.8
37 | AGATATCTTGTGAAATAAAAAAAATAATTGCTTATA [CACACA_negctrl_site798] | 9.46
38 | AAATTAGACTATAATACACACATAAAAAAAAAAAAA [CACACA_site6155] | 9.88
39 | TCCTTCGAAACTAAAATTCATTTAAAATATTGATAT [CACACA_negctrl_site369] | 9.37
40 | AAAGAAAAAAAAATTACACACATATATTATAGATAT [CACACA_site7495] | 9.82
41 | TACATACATACATACACACACACATATATATATATA [CACACA_site42] | 10.2
42 | TAGGTCCTCATTTTATGTACATAAAGAAATATGATT [XGTACX_site4138] | 9.47
43 | TATTTATAGATATATACACACATATACATATTGTTT [CACACA_site7611] | 10.1
44 | ATATAAACATTTAGTAATCCATATAGGTACTACTGA [CACACA_negctrl_site1249] | 9.54

Row | Sequence | gcPBM binding intensity (ln)
45 | AAAAAAAATATATAAACACACATATTTATATACGCA [CACACA_site1631] | 9.93
46 | ATATATGCTAATATATGTACTGATTATATCTCTTCA [XGTACX_site7156] | 9.57
47 | ATATTATATTATTAATGTACATATATATAATTTTAA [XGTACX_site4974] | 9.44
48 | AGAAATGAAATCCAAAAACGAGGAACCAATAACGCA [CACACA_negctrl_site1758] | 9.98
49 | TCTTATCCATATATTACACACTATATATAGAAATTA [CACACA_site291] | 9.73
50 | AAGGCAAACAAACACACACACATATATACCTATATA [CACACA_site5203] | 10.4
51 | ATTAATTTAATTTGAATTATTTTATTATATTATTAT [XGTACX_negctrl_site10] | 9.37
52 | GTTTGAATATATCAGGTGCATTTATAATTCATATGA | 9.45
53 | TATATATCTTTATGCACACACAAAGAAAATTTTCCT [CACACA_site7366] | 9.92
54 | ATATTATAGATATACACACACACATGCATGCACATA [CACACA_site6203] | 10.6
55 | ATAAGAAGAAGAAAAACACACATATGTAAATATATA [CACACA_site3138] | 10.1
56 | TAATTAAATATTTCAGTGCATTATTTTATGATCCAT [GTGCAC_site9456] | 9.6
57 | AGATGAACTAAAAAGGTGCTAAATATGTGACCACTG [GTGCAC_site9406] | 9.64
58 | ATTTAGAATGTTCCTACACACCAAATTTAAGTGTGC [CACACA_site7161] | 9.88
59 | TTTTTTTTAGTATGAACACACATATAGATTATAAAA [CACACA_site7391] | 9.36
60 | GTATAATATTCATATTCACACATTAAAATATATTTA [CACACA_site4879] | 9.59
61 | TAAAAATATATTATATGTACGTATAACAATGTATGA [XGTACX_site8606] | 9.68
62 | ACCTAATATTATTAAACATGCACATTTGCATAAATA [TGCATGCA_site870] | 9.51
63 | CAAAATGAAAGGAAAAGTACATTTAAATGAATAAAT [XGTACX_site8241] | 9.75
64 | AAGGACAACAAACAAACACACACAAAAAAAAAATAA [CACACA_site9263] | 10.2
65 | AAGAATATAATCTTCACACATATATATATATATATA [CACACA_site5927] | 9.62
66 | TACACCTGCACGATTGCACACAAATATGTTTTGAAG [CACACA_site8656] | 9.95

Row | Sequence | gcPBM binding intensity (ln)
67 | TTATTATTAAAACACACACACAAAAAAAAAAAAAAA [CACACA_site1480] | 10.2
68 | AAAAAAAAAAAAAAAACACACATGTATAATATAATA [CACACA_site2209] | 9.85
69 | TATAGATGTGGTTTATGTACATACTATAAAAAATCA [XGTACX_site1400] | 9.6
70 | TTATATATATATATATAATATATATATATTTAAATA [XGTACX_negctrl_site453] | 9.31
71 | TATATACCTATATATACACACAAATACATAAGCTTC [CACACA_site1369] | 9.95
72 | AAATATTTTTTAATGTGTACATAGAACATATATATA [XGTACX_site3136] | 9.64
73 | ATAATATATATATTATGTACATATAAATTTTTTTTT [XGTACX_site5826] | 9.66
74 | TATAACTATAAAAGGAGTACTATATATATATATATA [XGTACX_site1388] | 9.47
75 | ACTTATTTATTTTTAGTGCATTTAGTTTTATTTTAT | 9.86
76 | AGTATACACAAACACACACACACAAAAAAAAAAAAA [CACACA_site8036] | 10.7
77 | TCTACAAAATTATCATGTACATATTATTATAATTAT [XGTACX_site6585] | 9.73
78 | AATAGTACAAAAAAAAAAAAAAAAAAAAAAAAAAAA [CACACA_negctrl_site1376] | 8.9
79 | TAAAAAGAAAAAAAGAGTACAAACAAAATAATAATT [XGTACX_site6071] | 9.86
80 | TATTTGCAATGCAAATGTACATGAATTTTTTTAATG [XGTACX_site7474] | 9.39
81 | TTTTTTAAAAAACAAACACACACGTAGAAAAAAAAA [CACACA_site826] | 9.97
82 | TAATTATATGGATACACACACATACATTTACATAAC [CACACA_site5744] | 10.2
83 | TTTTTTTATTTTTGTTGTACTTATAATTCTGTAAAA [XGTACX_site7344] | 9.5
84 | TATAAATATAAATACACACACACACGCCAAAGCGTA [CACACA_site6181] | 11
85 | AAGAAAAATGTGTTTTTTTTTTTTTTTTTTTTCAAT [TGCATGCA_negctrl_site404] | 9.32
86 | CTTTTTTTTTTAAATAGTACTTTCTCGTATACTCAT [XGTACX_site1842] | 9.63
87 | TGTGAAATAAAATTTATACACACTTGCTAAATGATC [CACACA_site181] | 9.65
88 | TTTTTTATTTATTGTTATACATCTTACTACTTATAA [GTGCAC_negctrl_site381] | 9.93
